The campaign covered roughly 420,000 compounds. About 50,000 (12%) were called active. The shares of active, inactive and inconclusive entries below differ from those in the screen. Calls follow the shape of the dose curve; as a rule, active = well fitted inhibition curve with a large enough effect; inconclusive = small, poorly fitted or top-dose-only effect; inactive = flat fitted curve, though single readings scatter. No potency is given beside an inconclusive call; the fits are too rough.
Test: qHTS for Inhibitors of human tyrosyl-DNA phosphodiesterase 1 (TDP1): qHTS in cells in presence of CPT; also: nearly all actives have a fitted effect of over 55% in size
Conditions: chicken DT40 Tdp1-/-;hTDP1 cells + 20 nM CPT, ATP luminescence, 48 h; activity change, negative = growth inhibition: at 46.2 µM (top of the series)
How it was run: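 Chicken DT40 Tdp1-/- cells stably complemented with human TDP1 were seeded at 400 cells/well in medium containing 20 nM camptothecin, exposed to pin-transferred compounds, and grown at 37 °C for at least 48 hr. Viability was read as ATP luminescence.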
% is scaled to controls: 0 for no effect and ±100 for the full control effect; potency is read from the fitted curve at half-maximal effect; tags tell the direction and shape of the fitted curve.

For Cc1ccc(NC(=O)c2cccs2)cc1, which Potency is on record?
The Potency was inconclusive [inhibitor, full curve, poor fit].

For Nc1nn(-c2ccccc2)c(N)c1N=Nc1cccc(F)c1, which Potency is on record?
The Potency was active: 1.64 µM.

With COc1cccc(CNc2nc3cc(-c4ccc(C(=O)N5CCN(C)CC5)cc4)sc3c(=O)n2C)c1 as the compound, how does the Potency read?
The Potency was active: 20.6 µM.

For CCc1ccc(NC(=O)CSc2nc3ccccc3c(=O)n2CCCC(=O)N2CCCC2)cc1, which Potency is on record?
Its Potency is active: 14.6 µM.

With Cc1cc(=O)n2[nH]c(N)c(N=Nc3ccccc3F)c2n1 as the compound, how does the Potency read?
Its Potency is inconclusive [inhibitor, single point].

For c1ccc(-c2noc(-c3cccnc3NCc3ccco3)n2)cc1, which activity change, negative = growth inhibition is on record?
The activity change, negative = growth inhibition was inconclusive: -30.5% [inhibitor].

With CCOc1ccccc1NC(=O)c1nnn(-c2ccc3c(c2)OCCO3)c1N as the compound, how does the Potency read?
Its Potency is inconclusive [inhibitor, single point].

Which Potency does the source give for CC(NC(=O)CN(c1cccc(C(F)(F)F)c1)S(C)(=O)=O)c1ccccc1 (configuration not stated) here?
Its Potency is inconclusive [inhibitor, single point].

For Cc1ccc2c(c1)N(C(=O)CCC(=O)NCCN1CCOCC1)CCO2, which “activity change, negative = growth inhibition” value is on record?
Its value is inactive: 1.47%.

For Cc1cccc(Cn2c(SCc3ccc(C(=O)NCc4ccccc4F)cc3)nc3ccncc32)c1, which Potency is on record?
Its Potency is inconclusive [inhibitor, single point].

Which Potency does the source give for COc1cccc(/C=C2\SC(=S)N(C(C)C(=O)NC3C=CS(=O)(=O)C3)C2=O)c1 (configuration not stated) here?
Its Potency is inconclusive [inhibitor, single point].

For Cc1ccc(NC(=O)Cn2c(=O)oc3cc(S(=O)(=O)N4CCCCC4)ccc32)c(Cl)c1, which Potency is on record?
Its Potency is inconclusive [inhibitor, single point].

Which Potency does the source give for CC[C@H](C)[C@H]1O[C@]2(CC[C@@H]1C)C[C@@H]1C[C@@H](CC=C(C)[C@@H](O[C@H]3C[C@H](OC)[C@@H](O[C@H]4C[C@H](OC)[C@@H](O)[C@H](C)O4)[C@H](C)O3)[C@@H](C)C=CC=C3CO[C@@H]4[C@H](O)C(C)=C[C@@H](C(=O)O1)[C@]34O)O2 here?
The Potency was active: 3.66 µM.

With CCN(CC)C(=O)CSc1nnc(-c2c[nH]c3ccccc23)o1 as the compound, how does the “activity change, negative = growth inhibition” value read?
The value was inactive: -5.72%.

With COc1ccc(Br)cc1C1Nc2cccc3cccc(c23)N1 as the compound, how does the Potency read?
Its Potency is inconclusive [inhibitor, single point].

Which Potency does the source give for Cc1ccc(N2CN=C(c3ccccc3)NC2=S)cc1 here?
The Potency was inconclusive [inhibitor, single point].

For COc1ccc(S(=O)(=O)Oc2cccc(C(=S)N3CCOCC3)c2)cc1, which Potency is on record?
Its Potency is inconclusive [inhibitor, single point].

With COc1ccc2nc(Nc3ccccc3)sc2c1 as the compound, how does the “activity change, negative = growth inhibition” value read?
Its value is inactive: -0.689%.

For O=C(Cn1sc2ccccc2c1=O)Nc1ccc(Br)cc1, which Potency is on record?
Its Potency is active: 2.31 µM.

Which “activity change, negative = growth inhibition” value does the source give for CC1CCc2ccccc2N1C(=N)N(C)C (configuration not stated) here?
Its value is inactive: 1.69%.

Which Potency does the source give for Cc1cc(N2CCN(S(=O)(=O)c3ccc(Cl)cc3)CC2)c2ccccc2n1 here?
The Potency was active: 23.1 µM.

Which “activity change, negative = growth inhibition” value does the source give for O=C(CN1CCOCC1)Nc1ccc(Cl)c(Cl)c1 here?
The value was inactive: -5.09%.

For Cc1cc(C(=O)NNC(=S)NC2CCCCC2)cs1, which Potency is on record?
The Potency was inconclusive [inhibitor, single point].

With O=C(OCc1cn([C@H]2CN(Cc3cccs3)[C@@H](c3ccc(Cl)cc3)C[C@@H]2O)nn1)c1ccccc1 as the compound, how does the Potency read?
Its Potency is inconclusive [inhibitor, single point].

Which activity change, negative = growth inhibition does the source give for O=C(c1ccc(S(=O)(=O)N2CCCCC2)cc1)N1CCc2ccccc2C1 here?
The activity change, negative = growth inhibition was inconclusive: -35.5% [inhibitor].

Which Potency does the source give for COc1ccccc1CNC(=O)CCC(=O)N1CCOc2ccc(Cl)cc21 here?
Its Potency is inconclusive [inhibitor, single point].

Which Potency does the source give for CCOC(=O)c1c(NC(=S)Nc2cccc(C)c2)sc2c1CC(C)(C)SC2 here?
The Potency was inconclusive [inhibitor, single point].

Which Potency does the source give for COc1ccc(CN(C(=O)c2cc3ccccc3oc2=O)C2CCS(=O)(=O)C2)cc1OC (configuration not stated) here?
The Potency was “inactive”.

Which “activity change, negative = growth inhibition” value does the source give for Cc1cccc(NC(=S)N2CCN(Cc3ccccc3)CC2)c1C here?
The value was inactive: -11.9%.

With COc1ccccc1-c1noc(-c2ccc(NC3CCCCC3)c([N+](=O)[O-])c2)n1 as the compound, how does the Potency read?
Its Potency is inconclusive [inhibitor, single point].

For Cc1c(-c2cccc(NC(=O)Nc3ccc(Cl)cc3)c2)nc2ncccn12, which Potency is on record?
Its Potency is inconclusive [inhibitor, single point].

Which Potency does the source give for CC1CCCCN1C(=O)Cn1ncc2c3ccccc3n(Cc3ccccc3F)c2c1=O (configuration not stated) here?
The Potency was active: 9.2 µM.

Which Potency does the source give for CCCn1c(SCC(=O)c2cc(OC)ccc2OC)nnc1-c1ccco1 here?
The Potency was inconclusive [inhibitor, single point].

Which “activity change, negative = growth inhibition” value does the source give for COc1ccc(CCn2cc(C#N)c(=O)[nH]c2=O)cc1OC here?
The value was inactive: 5.93%.

For Cc1ccc(NC2=C/C(=N/S(=O)(=O)c3cccs3)c3ccccc3C2=O)cc1, which Potency is on record?
Its Potency is active: 1.84 µM.

For CCCCN(CCCNC(=O)CN1N=C(c2ccc(C)cc2)CCC1=O)c1ccccc1, which Potency is on record?
Its Potency is inconclusive [inhibitor, single point].

For O=C(OCC12CC3CC(CC(C3)C1)C2)c1ccc(NCc2cc(O)ccc2O)cc1, which Potency is on record?
Its Potency is active: 1.46 µM.

For CCc1ccc(OCC(=O)NC(=S)Nc2ccc(S(=O)(=O)NC3CCCCC3)cc2)cc1, which Potency is on record?
Its Potency is inconclusive [inhibitor, single point].

For CCOC(=O)CSCC(=O)N1N=C(c2cccs2)CC1c1ccc(F)cc1 (configuration not stated), which Potency is on record?
Its Potency is active: 14.6 µM.

Which Potency does the source give for Clc1ccc(CSc2snnc2-c2ccccc2)cc1 here?
The Potency was inconclusive [inhibitor, single point].

With O=C(CCCc1cccs1)Nc1nc(-c2ccc(F)cc2)cs1 as the compound, how does the Potency read?
The Potency was inconclusive [inhibitor, single point].

With Cc1ccc2c(c1)-c1c(cnn1CC(=O)N1CCN(c3ccccc3F)CC1)CO2 as the compound, how does the Potency read?
The Potency was inconclusive [inhibitor, single point].

For O=C(CCCN1C(=O)C(c2ccccc2)Oc2cccnc21)NCc1ccccc1F (configuration not stated), which Potency is on record?
The Potency was active: 16.4 µM.

Which “activity change, negative = growth inhibition” value does the source give for COc1ccc(NC(=O)CSc2nccn2C)c([N+](=O)[O-])c1 here?
The value was inactive: 14.4%.

For O=S(=O)(/N=C(\c1ccccc1)N1CCOCC1)c1ccc(Cl)cc1, which Potency is on record?
The Potency was inconclusive [inhibitor, full curve, poor fit].

Which Potency does the source give for COc1cc([N+](=O)[O-])ccc1NC(=O)Nc1ccc(C(=O)N2CCCC2)cc1 here?
Its Potency is inconclusive [inhibitor, partial curve].

With O=C(O)c1c2c(nc3ccc(S(=O)(=O)N4CCC(C(=O)NCc5ccccc5Cl)CC4)cc13)CCCC2 as the compound, how does the “activity change, negative = growth inhibition” value read?
The value was inactive: 1.44%.

For O=C(NCC1CC1)c1csc(COCCO)n1, which “activity change, negative = growth inhibition” value is on record?
The value was inactive: -8.95%.

Which “activity change, negative = growth inhibition” value does the source give for C/C(=N/NC(=O)c1cccs1)c1ccc(N2CCOCC2)cc1 here?
Its value is inactive: -17.6%.

With COc1cc2c(cc1OC)/C(=C/C(=O)c1ccc(F)cc1)NCC2 as the compound, how does the Potency read?
The Potency was inconclusive [inhibitor, single point].

With CC1(Oc2cccc(F)c2)CCN(Cc2csc3ccccc23)C1 (configuration not stated) as the compound, how does the Potency read?
The Potency was inconclusive [inhibitor, single point].

With CCN1CCN(c2nc(-c3ccccc3)c3ccccc3n2)CC1 as the compound, how does the Potency read?
The Potency was inconclusive [inhibitor, single point].

Which “activity change, negative = growth inhibition” value does the source give for COc1cc(OC)c(C(=O)O/N=C(\N)c2ccccn2)cc1OC here?
The value was inactive: -27.5%.

For CC(C)(C)C(=O)/C(=C/c1ccncc1)n1cncn1, which Potency is on record?
Its Potency is active: 3.26 µM.

With Oc1ccc(/C(Cc2ccccn2)=N\Nc2ccccc2)c(O)c1 as the compound, how does the Potency read?
Its Potency is inconclusive [inhibitor, single point].

For COc1ccc(-c2cn3cccnc3n2)cc1NC(=O)Cc1ccccc1, which “activity change, negative = growth inhibition” value is on record?
The value was inactive: -27%.

For CN1C(=O)C(C)(C)c2cc(S(=O)(=O)N3CCN(c4cccc(Cl)c4)CC3)ccc21, which Potency is on record?
The Potency was inconclusive [inhibitor, single point].

For CC1C(c2ccccc2)OCCN1C=NC#N (configuration not stated), which “activity change, negative = growth inhibition” value is on record?
The value was inactive: 6.46%.

Which Potency does the source give for Cc1ccc(-c2nc(CNC(=O)Nc3ccccc3)c(C)o2)cc1 here?
The Potency was inconclusive [inhibitor, single point].

Which Potency does the source give for CCCN1CCc2c(sc(NC(=O)c3ccc(S(=O)(=O)N(C)c4ccccc4)cc3)c2C(=O)NC)C1 here?
The Potency was inconclusive [inhibitor, single point].

With Cc1oc2ncn(CC(C)C)c(=O)c2c1C(=O)NCCc1ccccc1 as the compound, how does the Potency read?
Its Potency is inconclusive [inhibitor, single point].

With S=C(Nc1ccc(Cl)cc1)NC1CC2CCC(C1)N2Cc1ccccc1 (configuration not stated) as the compound, how does the Potency read?
The Potency was active: 23.1 µM.

For COC(=O)c1c(-c2c(Cl)cccc2Cl)noc1NC(=O)NN1CCOCC1, which “activity change, negative = growth inhibition” value is on record?
Its value is inactive: -8.23%.

With COc1cccc(OCC(=O)NCCS(=O)(=O)N2CCN(c3ccccc3F)CC2)c1 as the compound, how does the Potency read?
Its Potency is inconclusive [inhibitor, single point].

With O=S1(=O)C=C(Oc2ccc3ccccc3c2)c2ccccc21 as the compound, how does the Potency read?
The Potency was inconclusive [inhibitor, partial curve, poor fit].

Which Potency does the source give for CC1(C(=O)NCc2ccco2)Cc2c(-c3cccc(C(N)=O)c3)ccnc2O1 (configuration not stated) here?
The Potency was active: 4.11 µM.

With O=C(C1CC(=O)N(C2CCCC2)C1)N1CCN(c2ccc(F)cc2)CC1 (configuration not stated) as the compound, how does the “activity change, negative = growth inhibition” value read?
Its value is inactive: -5.12%.

For Cc1ccc(CCNC(=O)CNS(=O)(=O)c2ccc3nc(C)sc3c2)cc1, which “activity change, negative = growth inhibition” value is on record?
Its value is inactive: 4.59%.

For Oc1ccc(Br)cc1CNc1cccc2cccnc12, which Potency is on record?
Its Potency is inconclusive [inhibitor, partial curve, poor fit].

Which Potency does the source give for COc1cc(CNCc2ccccn2)ccc1OCc1ccc(Cl)cc1Cl here?
The Potency was inconclusive [inhibitor, single point].

For COc1c(O)ccc2cnn(-c3ccccc3C)c(=O)c12, which Potency is on record?
The Potency was inconclusive [inhibitor, partial curve].

For Cc1cc(C)n2c(Nc3ccc(C(C)C)cc3)c(-c3ccsc3)nc2n1, which Potency is on record?
Its Potency is inconclusive [inhibitor, single point].

Reference: PubChem BioAssay AID686979 (National Center for Advancing Translational Sciences (NCATS), 2013)
